From the supplement of paper PMC10338343
± gives the standard deviation. The entries are a selection whose mix differs from that of the whole data set.

What follows are sequences tested on MIWI (PIWIL1) piRISC loaded with piRNA #1 (30 nt) (assay: pre-steady-state target cleavage rate (min^-1); MIWI and MILI are mouse PIWI proteins and EfPiwi is from a freshwater sponge; tags in brackets are library labels; higher = faster piRNA-guided slicing of the target). Settings: guide: piRNA #1 5'p-UGAGGUAGUAGGUUGUAUAGUAUCCAGAGG; auxiliary factor: 500 nM mouse GTSF1.
Outline: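 At 33 °C in HEPES–potassium acetate buffer, a transcribed, DNA-blocked target RNA library […] was exposed for 0–8 or 0–960 min to 1 nM active affinity-purified piRISC carrying a single synthetic guide, with or without 500 nM GTSF1 partner protein. Uncleaved targets were sequenced and normalised to depth and to weakly complementary targets. With three trials pooled and k3 capped at 0.0001 min^-1, a burst-and-steady-state fit produced the pre-steady-state cleavage rate.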
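Further: 1 nM active piRISC with 0.1 nM target library at 33 °C single turnover.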

Sequence	pre-steady-state target cleavage rate
GGAGACCUAUCUAUACAUCCUACUACCUGA	0.151 ± 0.023
GGAGAGGAUAUAUACAACCUACUACCUCA	1.21 ± 0.064
GGACAGGAUACUAUACAACGUACUACCUCA	0.705 ± 0.043
CCUCUGGAUAGUAUUCAACCUACUACCUCA	0.132 ± 0.029
GGAGACCUUACUAUACAACCGACUACCUCA	0.0139 ± 0.0025
GCUCUGGAUACUAAAGAACCUACUACCUCA	1.17 ± 0.087
GGUCUGGAUACUAUACAACCAACAACCUCA	0.0418 ± 0.0076
GGAGAGCAUACUAUUCAACCUACUACCUCA	1.78 ± 0.12
GGAGACCUAUGUAUACAACCUACUACGUCA	0.0939 ± 0.015
GGAGACCAUCACUAUACAACCUACUACCUCA	1.47 ± 0.17
GGAGACGAUUCUAUACAACCUUCUACCUCA	0.764 ± 0.04
GGAGUGGAAACUAUACAACCUACUUCCUCA	0.00741 ± 0.0026
CCUCUGGAUACUAUACAACCUACUACAUCA	1.5 ± 0.074
GGAGACGAUACUAUACUUCCUACUACCUCA	0.277 ± 0.028
GGAGACCUAUCUUUACAAGCUACUACCUCA	0.0778 ± 0.013
GGAAUGGAUACUAUACAACCUACUACCUCA	1.86 ± 0.099
GGAGACCUAACUAUACAACCUACUAGCUCA	0.509 ± 0.062
CCUCUGGAUACUAUUCAACCUACUACGUCA	1.7 ± 0.1
GGAGAGGAUACUAUACACCCUACUACCUCA	1.4 ± 0.068
GGAGACCUAUCAAUACAACCUAGUACCUCA	0.00728 ± 0.0036

Sequence	pre-steady-state target cleavage rate
GGAGACCUUACUAUACAACCUACCUACCUCA	1.16 ± 0.095
GGAGACCUUACUACACAACCUACUACCUCA	1.24 ± 0.086
GCUCUGGAUGCUAUACAACCUACUACCUCA	1.93 ± 0.15
GCUCUGGAUACUAUACAACCUACUACGUGA	0.785 ± 0.084
GCUCUGGAUACUAUACAACCUACAAGCUCA	0.629 ± 0.094
GGAGACCUAACUAUACAACCUAGAUCCUCA	0.00694 ± 0.0038
GCUCUGGAUACUGUACAACCUACUACCUCA	0.583 ± 0.053
GGAGUGGAUACUUUACAACCUACUUCCUCA	0.00478 ± 0.0019
GGAGAGGAUACUAUACAACCUACUACCCCA	0.835 ± 0.075
CCUCUGGAUACUAUACAUCCUACUACCUCA	1.85 ± 0.12
GGAGUGGAUACUACACAACCUACUACCUCA	1.71 ± 0.097
GGAGAGGAUACUAUUCAACCUACUUCCUCA	0.192 ± 0.049
GGAGACCUUACAAUACAACCUACUACCUGA	0.161 ± 0.032
GCACUGGAUACUAUACAUCCUACUACCUCA	1.88 ± 0.096
GCUCUGGAUACUAUACAACCUACCUACCUCA	1.63 ± 0.091
GGAGACGAUACUAUACAACGUACUACCUCA	0.788 ± 0.037
GGUCUCGAUACUAUACAACGUACUACCUCA	0.966 ± 0.056
GGUCUCCUUACUAUACAACCUACUACCUCA	1.66 ± 0.095
GCUCUCGAUAGUAUACAACCUACUACCUCA	1.95 ± 0.13
CCUGUGGAUACUAUACAACGUACUACCUCA	0.379 ± 0.035
